The assay relates to mPer2Luc MEF. Kind of assay: PER2::LUC luminescence relative to vehicle control (fold of vehicle); higher = higher PER2::LUC reporter signal. The following applies: 10 µM. The method, boiled down:
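Compounds from commercial libraries were added at 10 μM to 384-well plates seeded 48 h earlier with ~3000 mPer2Luc mouse embryonic fibroblasts per well. The cells were kept in DMEM with 10% FBS at 37 °C and 5% CO2. Luminescence was read with ONE-Glo 24 h and 30 h after treatment, then an alamarBlue viability assay was run. Values are PER2::LUC luminescence relative to vehicle control, as fold change.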

The structures appear in SMILES notation. “And” between values parts separate entries of the source, which are not always exact repeats. Equal entries are not always repeated. In all, about 5,300 compounds were measured (“PER2::LUC luminescence relative to vehicle control”: median about 0.96, highest 2% from about 1.3 on). The list shows a part of the results.

In the case of `O=C(O)/C=C/c1ccc(-c2ccc(O)c(C34CC5CC(CC(C5)C3)C4)c2)cc1`, the “PER2::LUC luminescence” value (time after treatment 24 h) is 0.735 and the “PER2::LUC luminescence” value (time after treatment 30 h) amounted to 0.721.

As for `NS(=O)(=O)NCCNc1nonc1/C(=N/O)Nc1ccc(F)c(Br)c1`, the “PER2::LUC luminescence” value by setting is: (time after treatment 24 h) 1.01; (time after treatment 30 h) 1.07.

As for `O[C@@H](COc1cccc2ncccc12)CN1CCN(C2c3ccccc3[C@@H]3[C@H](c4ccccc42)C3(F)F)CC1` (stereo not given in full), the “PER2::LUC luminescence” value came out at 0.96 (time after treatment 24 h) and 0.7 (time after treatment 30 h).

In the case of `CNC(=O)c1c(I)c(NC(C)=O)c(I)c(C(=O)O)c1I`, the “PER2::LUC luminescence” value was determined as 0.967 (time after treatment 24 h) and 0.924 (time after treatment 30 h).

With `O=S(=O)(NCCNC/C=C/c1ccc(Br)cc1)c1cccc2cnccc12`, the “PER2::LUC luminescence” value was 0.641 (time after treatment 24 h) and 0.523 (time after treatment 30 h).

With `N=C1S/C(=C\c2ccc(-c3ccc4c(c3)C(=O)NC4=O)o2)C(=O)N1c1ccc(Br)cc1`, the “PER2::LUC luminescence” value was 0.976 (time after treatment 24 h) and 0.882 (time after treatment 30 h).

Turning to `OCC(O)CN1CCN(c2ccccc2)CC1` (stereo not given), the “PER2::LUC luminescence” value amounted to 0.992 (time after treatment 24 h) and 1.05 (time after treatment 30 h).

Consider `CC(C)=CC[C@@H](OC(=O)C=C(C)C)C1=CC(=O)c2c(O)ccc(O)c2C1=O`, for which the “PER2::LUC luminescence” value reads like this: (time after treatment 24 h) 1.03; (time after treatment 30 h) 1.03.

For the compound `CC(C)CCNc1ncccc1C(=O)N1CCN(Cc2ccccc2)CC1`, the “PER2::LUC luminescence” value runs as follows: (time after treatment 24 h) 1.09; (time after treatment 30 h) 1.07.

For the compound `O=C(Nc1ccc(Cl)cc1)c1cc(Br)ccc1O`, the “PER2::LUC luminescence” value is, setting by setting: (time after treatment 24 h) 0.822; (time after treatment 30 h) 0.728.

`COc1ccccc1N1CCN(CCN2C(=O)CC3(CCCC3)CC2=O)CC1`: the “PER2::LUC luminescence” value is, setting by setting: (time after treatment 24 h) 1.01; (time after treatment 30 h) 0.951.

On to `CN1Cc2sccc2C(c2ccc(O)c(O)c2)C1` (stereo not given), for which the “PER2::LUC luminescence” value runs as follows: (time after treatment 24 h) 1.09; (time after treatment 30 h) 0.974.

As to `COc1cc2c(cc1OC)C(=O)OC2`, the “PER2::LUC luminescence” value worked out at 0.85 (time after treatment 24 h) and 0.816 (time after treatment 30 h).

`Fc1ccc(-n2cc(CCCCN3CCC4(CC3)OCc3ccccc34)c3ccccc32)cc1`: the “PER2::LUC luminescence” value (time after treatment 24 h) is 0.561 and 0.532; the “PER2::LUC luminescence” value (time after treatment 30 h) is 0.617 and 0.573.

In the case of `CN(C)CCC(c1ccc(Cl)cc1)c1ccccn1` (stereo not given), the “PER2::LUC luminescence” value was 0.912 and 0.863 (time after treatment 24 h); 0.974 and 0.869 (time after treatment 30 h).

Consider `C[C@H](O)C(=O)C1=Nc2c(nc(N)[nH]c2=O)NC1`, for which the “PER2::LUC luminescence” value (time after treatment 24 h) is 1.14 and the “PER2::LUC luminescence” value (time after treatment 30 h) was found to be 1.11.

Turning to `COc1cc(N)c(Cl)cc1C(=O)NC1CCN(CCCOc2ccc(F)cc2)CC1OC` (stereo not given), the “PER2::LUC luminescence” value was found to be 0.817 (time after treatment 24 h) and 0.668 (time after treatment 30 h).

In the case of `COc1ccc2cc1Oc1ccc(cc1)C[C@H]1c3c(cc4c(c3Oc3cc5c(cc3OC)CCN(C)[C@@H]5C2)OCO4)CCN1C`, the “PER2::LUC luminescence” value is 0.267 (time after treatment 24 h) and 0.416 (time after treatment 30 h).

Take `CC(O)CC(C)(C)O` (stereo not given): the “PER2::LUC luminescence” value runs as follows: (time after treatment 24 h) 1.2 and 0.943; (time after treatment 30 h) 0.89 and 0.9.

For the compound `CC(C)(C)NC(=O)[C@@H]1CN(Cc2cccnc2)CCN1C[C@@H](O)C[C@@H](Cc1ccccc1)C(=O)N[C@H]1c2ccccc2C[C@H]1O`, the “PER2::LUC luminescence” value (time after treatment 24 h) came out at 0.907 and the “PER2::LUC luminescence” value (time after treatment 30 h) stood at 0.997.

In the case of `O=C(O)c1ccccc1Nc1cccc(OCc2ccc3ccccc3n2)c1`, the “PER2::LUC luminescence” value by setting is: (time after treatment 24 h) 0.958; (time after treatment 30 h) 0.844.

`CC(=O)NCCc1c(Cc2ccccc2)[nH]c2ccccc12`: the “PER2::LUC luminescence” value is 0.891 (time after treatment 24 h) and 0.965 (time after treatment 30 h).

For the compound `O=C(O[C@@H]1C[C@@H]2C[C@H]3C[C@H](C1)N2CC3=O)c1c[nH]c2ccccc12`, the “PER2::LUC luminescence” value reads like this: (time after treatment 24 h) 0.947; (time after treatment 30 h) 0.901.

For `COc1ccc(COc2cc3oc(=O)c4cc(C(C)O)ccc4c3cc2OC)cc1` (stereo not given), the “PER2::LUC luminescence” value was found to be 1.05 (time after treatment 24 h) and 0.907 (time after treatment 30 h).

As for `Cn1c(=O)c2[nH]c(Br)nc2n(C)c1=O`, the “PER2::LUC luminescence” value (time after treatment 24 h) came to 0.903 and the “PER2::LUC luminescence” value (time after treatment 30 h) was 0.929.

Values taken from the supplement of paper PMC9334596.
